Results: the RNAGym collection of RNA variant scans (doi:10.1093/nar/gkz1192)
Read counts are not given, so values of variants with three or more changes are uncertain.

B1: CPEB3 Ribozyme (parent)
chain: UAACAGGGGGCCACAGCAGAAGCGUUCACGUCGCAGCCCCUGUCAGAUUCUGGUGAAUCUGCGAAUUCUGCUGUAUAUCUC

Variants of: B1
Experiment: self-cleavage, relative activity (ratio to wild type); higher = more cleavage; in vitro, sequencing
In short: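 Libraries of CPEB3 self-cleaving ribozyme mutants came from rounds of error-prone PCR and carried barcodes, which DNA sequencing matched to variants. In vitro transcription used T7 RNA polymerase at 37°C for 5 hours, with a further 15 min in DNase I before EDTA stopped the reaction; the ribozymes cleaved during both steps. The RNA was reverse transcribed with template switching and sequenced on Illumina. Relative activity is the cleaved/total read fraction of a variant divided by that of the unmutated ribozyme, averaged over three batches with at least 5 reads.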

For A45U U72A U76C, which self-cleavage is on record?
The self-cleavage was 0.42.

With A45G U54C U72G as the variant, how does the self-cleavage read?
The self-cleavage was 0.5.

Which self-cleavage does the source give for A45G U54C U72C here?
Its self-cleavage is 1.03.

With A47G A56U U58C U60A as the variant, how does the self-cleavage read?
The self-cleavage was 0.17.

With A47G A56G U74C as the variant, how does the self-cleavage read?
Its self-cleavage is 1.13.

For A45U A47U U48C, which self-cleavage is on record?
Its self-cleavage is 0.16.

For A45U U66C U67C U80G, which self-cleavage is on record?
The self-cleavage was 0.17.

Which self-cleavage does the source give for A45U U80G C81U here?
The self-cleavage was 0.87.

For A45U U54C A64G U66C, which self-cleavage is on record?
The self-cleavage was 0.11.

For A47G A64G U69G, which self-cleavage is on record?
Its self-cleavage is 0.28.

Which self-cleavage does the source give for A45G A64G G73C U76A here?
Its self-cleavage is 1.22.

With A47G C62U A64G as the variant, how does the self-cleavage read?
Its self-cleavage is 0.25.

Which self-cleavage does the source give for G46U U58C U60C A77G here?
The self-cleavage was 0.13.

With A45G A64U U72C U74C A75G C79A as the variant, how does the self-cleavage read?
Its self-cleavage is 0.47.

With G46U U54C A57C C71U G73A as the variant, how does the self-cleavage read?
Its self-cleavage is 0.12.

Which self-cleavage does the source give for A45U A57G U76C here?
Its self-cleavage is 0.4.

For A45U A57G U76A, which self-cleavage is on record?
The self-cleavage was 0.22.

Which self-cleavage does the source give for A45U G52C U67A here?
The self-cleavage was 0.2.

With A45G U60A U69C as the variant, how does the self-cleavage read?
The self-cleavage was 0.33.

For A45G A56C U67C U80C, which self-cleavage is on record?
Its self-cleavage is 0.14.

Which self-cleavage does the source give for A45G U54A U66C here?
Its self-cleavage is 0.28.

With A45G U49C U60A U72C as the variant, how does the self-cleavage read?
Its self-cleavage is 0.1.

Which self-cleavage does the source give for A45G U51A A57G C79G here?
The self-cleavage was 0.38.

Which self-cleavage does the source give for A45U U51A U58C U80C here?
The self-cleavage was 0.09.

With A45G U76A U80C as the variant, how does the self-cleavage read?
Its self-cleavage is 1.09.

For A45G U78C U80A C81A, which self-cleavage is on record?
The self-cleavage was 1.17.

With A45G U49C U51G U60A U74A C81A as the variant, how does the self-cleavage read?
Its self-cleavage is 0.23.

With A45G U60A U74C A75U as the variant, how does the self-cleavage read?
Its self-cleavage is 1.07.

For A45U U58C C59U, which self-cleavage is on record?
Its self-cleavage is 0.21.

With A45G C62U U72C as the variant, how does the self-cleavage read?
The self-cleavage was 0.39.

For A45U U51C A64G U67A, which self-cleavage is on record?
The self-cleavage was 0.17.

With A45U U51A A56G A57G U69C A75G U80A as the variant, how does the self-cleavage read?
The self-cleavage was 0.11.

For A45G G52C A56G U76C, which self-cleavage is on record?
The self-cleavage was 0.61.

Which self-cleavage does the source give for A45G U69A U72A here?
Its self-cleavage is 0.2.

Which self-cleavage does the source give for A45U A56G U76C here?
Its self-cleavage is 0.32.

With A45G C50A U54C U67A as the variant, how does the self-cleavage read?
The self-cleavage was 0.12.

With A45U U54A C59A as the variant, how does the self-cleavage read?
The self-cleavage was 0.17.

For A45U U51C A56U U58C, which self-cleavage is on record?
Its self-cleavage is 0.13.

With A45G A64U U69A as the variant, how does the self-cleavage read?
Its self-cleavage is 0.43.

For A45U U58C A64U U67A, which self-cleavage is on record?
Its self-cleavage is 0.11.

For A45G U66A U80C, which self-cleavage is on record?
The self-cleavage was 0.4.

Which self-cleavage does the source give for A47G A77C U80C here?
Its self-cleavage is 0.6.

For A45G C59U U67A, which self-cleavage is on record?
The self-cleavage was 0.16.

Which self-cleavage does the source give for A47G A56G U58A U72C here?
The self-cleavage was 0.29.

For A47G C59A U69C, which self-cleavage is on record?
The self-cleavage was 0.05.

For A45U G63C A64G, which self-cleavage is on record?
Its self-cleavage is 0.59.

For A45G U60A A75G, which self-cleavage is on record?
Its self-cleavage is 0.33.

Which self-cleavage does the source give for G46U A64G A65G here?
Its self-cleavage is 0.17.

With A45G U51G A77U as the variant, how does the self-cleavage read?
Its self-cleavage is 0.66.

With A45G G53U U60C as the variant, how does the self-cleavage read?
The self-cleavage was 1.02.

With A45G U54C U66A U76A A77G as the variant, how does the self-cleavage read?
Its self-cleavage is 0.18.

Which self-cleavage does the source give for A45G A47G U72C U80C here?
The self-cleavage was 0.7.

For A47G C71A U80A, which self-cleavage is on record?
The self-cleavage was 0.35.

With A45G U72C A77U as the variant, how does the self-cleavage read?
The self-cleavage was 0.98.

For A47G A64G U78C, which self-cleavage is on record?
Its self-cleavage is 0.76.

Which self-cleavage does the source give for A47G A65U U66C A75U here?
Its self-cleavage is 0.71.

With A45G U54G U76C as the variant, how does the self-cleavage read?
The self-cleavage was 0.56.

Which self-cleavage does the source give for A45G U49G G55A here?
The self-cleavage was 0.21.

With A45G U58G A64G as the variant, how does the self-cleavage read?
Its self-cleavage is 0.37.

With A45U U69C U72A as the variant, how does the self-cleavage read?
Its self-cleavage is 0.16.

With A47G A56G A64U U69A U76A as the variant, how does the self-cleavage read?
Its self-cleavage is 0.28.

For G46U A56U C62A U80C, which self-cleavage is on record?
The self-cleavage was 0.1.

Which self-cleavage does the source give for G46C U51A C62U here?
Its self-cleavage is 0.2.

For A45U A57G C62G, which self-cleavage is on record?
The self-cleavage was 0.23.

Which self-cleavage does the source give for A45G U48C U80C here?
The self-cleavage was 0.28.

For A45G U48C A65G, which self-cleavage is on record?
The self-cleavage was 0.33.

For A45G U51A U72C, which self-cleavage is on record?
Its self-cleavage is 1.12.

Which self-cleavage does the source give for A45G U67C A75U here?
Its self-cleavage is 0.23.

Which self-cleavage does the source give for A45U U48C U51C A75G U80C here?
The self-cleavage was 0.13.

Which self-cleavage does the source give for A45G U49C U78C U80A here?
Its self-cleavage is 0.11.

Which self-cleavage does the source give for A45G U49C U58C A65G C81U here?
Its self-cleavage is 0.13.

With A45U A56G A75U as the variant, how does the self-cleavage read?
Its self-cleavage is 0.23.

Which self-cleavage does the source give for A45U C50U C62A here?
Its self-cleavage is 0.17.

Which self-cleavage does the source give for A45U A56U U80C here?
Its self-cleavage is 0.16.

For A45U A56U U80G, which self-cleavage is on record?
Its self-cleavage is 0.03.

Which self-cleavage does the source give for A45U U48C U66C U78C here?
Its self-cleavage is 0.08.

With A45G U49C C71A U78C as the variant, how does the self-cleavage read?
The self-cleavage was 0.18.

With A45U A56G U78A U80C as the variant, how does the self-cleavage read?
The self-cleavage was 0.31.

With A45G A57G U58C U72G as the variant, how does the self-cleavage read?
Its self-cleavage is 0.15.

For A45G U51C G70A U72A U76C, which self-cleavage is on record?
The self-cleavage was 0.22.

Which self-cleavage does the source give for G46A A47G U80C here?
The self-cleavage was 0.23.

For A45U A47G U48C U54G, which self-cleavage is on record?
Its self-cleavage is 0.34.

With A45G C50U A64U U74C as the variant, how does the self-cleavage read?
Its self-cleavage is 0.33.
